Measurements as given in US20110319597A1 (CAPHALON AUSTRALIA, published 2011).
Each block holds one binder with its values, some of them ahead of it.

How the values were obtained:
[1] = target: T1, recombinant human TNFα (CytoLab) (human, UniProt P01375 fragment); experiment: ELISA on coated human TNFα
T1 construct: coated on the ELISA plate at 1 µg/ml; also called Tumour necrosis factor alpha

recombinant human TNFα = recombinant human TNFα (human, UniProt P01375 fragment); experiment: cell-based or functional assay

B1: TNFα dAb Fc variant F83P (Fc fusion, name in Kabat numbering)
chain: DIQMTQSPSSLSASVGDRVTITCRASQAIDSYLHWYQQKPGKAPKLLIYSASNLETGVPSRFSGSGSGTDFTLTISSLLPEDPATYYCQQVVWRPFTFGQGTKVEIKRV[human IgG1 Fc with changes left out]
A450 (AU) [1]: 0.453 AU
Standardized EC50, L929 neutralization assay (5-point) (recombinant human TNFα): 16.9 µg/mL

B2: TNFα dAb Fc variant K42H (Fc fusion, name in Kabat numbering)
chain: DIQMTQSPSSLSASVGDRVTITCRASQAIDSYLHWYQQKPGHAPKLLIYSASNLETGVPSRFSGSGSGTDFTLTISSLLPEDFATYYCQQVVWRPFTFGQGTKVEIKRV[human IgG1 Fc with changes left out]
A450 (AU) [1]: 1.07 AU
Standardized EC50, L929 neutralization assay (5-point) (recombinant human TNFα): 2.26 µg/mL

B4: TNFα dAb Fc variant G41P (Fc fusion, name in Kabat numbering)
chain: DIQMTQSPSSLSASVGDRVTITCRASQAIDSYLHWYQQKPPKAPKLLIYSASNLETGVPSRFSGSGSGTDFTLTISSLLPEDFATYYCQQVVWRPFTFGQGTKVEIKRV[human IgG1 Fc with changes left out]
A450 (AU) [1]: 0.966 AU
Standardized EC50, L929 neutralization assay (5-point) (recombinant human TNFα): 7.33 µg/mL

B5: TNFα dAb Fc variant K42L (Fc fusion, name in Kabat numbering)
chain: DIQMTQSPSSLSASVGDRVTITCRASQAIDSYLHWYQQKPGLAPKLLIYSASNLETGVPSRFSGSGSGTDFTLTISSLLPEDFATYYCQQVVWRPFTFGQGTKVEIKRV[human IgG1 Fc with changes left out]
A450 (AU) [1]: 0.816 AU
Standardized EC50, L929 neutralization assay (5-point) (recombinant human TNFα): 1.23 µg/mL

B7: TNFα dAb Fc variant G57L (Fc fusion, name in Kabat numbering)
chain: DIQMTQSPSSLSASVGDRVTITCRASQAIDSYLHWYQQKPGKAPKLLIYSASNLETLVPSRFSGSGSGTDFTLTISSLLPEDFATYYCQQVVWRPFTFGQGTKVEIKRV[human IgG1 Fc with changes left out]
A450 (AU) [1]: 1.07 AU
Standardized EC50, L929 neutralization assay (5-point) (recombinant human TNFα): 2.82 µg/mL

B8: TNFα dAb Fc variant K39S (Fc fusion, name in Kabat numbering)
chain: DIQMTQSPSSLSASVGDRVTITCRASQAIDSYLHWYQQSPGKAPKLLIYSASNLETGVPSRFSGSGSGTDFTLTISSLLPEDFATYYCQQVVWRPFTFGQGTKVEIKRV[human IgG1 Fc with changes left out]
A450 (AU) [1]: 1 AU
Standardized EC50, L929 neutralization assay (5-point) (recombinant human TNFα): 1.6 µg/mL

B9: TNFα dAb Fc variant G41Y (Fc fusion, name in Kabat numbering)
chain: DIQMTQSPSSLSASVGDRVTITCRASQAIDSYLHWYQQKPYKAPKLLIYSASNLETGVPSRFSGSGSGTDFTLTISSLLPEDFATYYCQQVVWRPFTFGQGTKVEIKRV[human IgG1 Fc with changes left out]
A450 (AU) [1]: 0.929 AU
Standardized EC50, L929 neutralization assay (5-point) (recombinant human TNFα): 3.57 µg/mL

B10: TNFα dAb Fc variant F83Y (Fc fusion, name in Kabat numbering)
chain: DIQMTQSPSSLSASVGDRVTITCRASQAIDSYLHWYQQKPGKAPKLLIYSASNLETGVPSRFSGSGSGTDFTLTISSLLPEDYATYYCQQVVWRPFTFGQGTKVEIKRV[human IgG1 Fc with changes left out]
A450 (AU) [1]: 1.29 AU
Standardized EC50, L929 neutralization assay (5-point) (recombinant human TNFα): 0.493 µg/mL

B11: TNFα dAb Fc variant G64S (Fc fusion, name in Kabat numbering)
chain: DIQMTQSPSSLSASVGDRVTITCRASQAIDSYLHWYQQKPGKAPKLLIYSASNLETGVPSRFSSSGSGTDFTLTISSLLPEDFATYYCQQVVWRPFTFGQGTKVEIKRV[human IgG1 Fc with changes left out]
A450 (AU) [1]: 0.907 AU
Standardized EC50, L929 neutralization assay (5-point) (recombinant human TNFα): 2.35 µg/mL

B12: TNFα dAb Fc variant G66K (Fc fusion, name in Kabat numbering)
chain: DIQMTQSPSSLSASVGDRVTITCRASQAIDSYLHWYQQKPGKAPKLLIYSASNLETGVPSRFSGSKSGTDFTLTISSLLPEDFATYYCQQVVWRPFTFGQGTKVEIKRV[human IgG1 Fc with changes left out]
A450 (AU) [1]: 0.968 AU
Standardized EC50, L929 neutralization assay (5-point) (recombinant human TNFα): 542 µg/mL

B15: TNFα dAb Fc variant K45A (Fc fusion, name in Kabat numbering)
chain: DIQMTQSPSSLSASVGDRVTITCRASQAIDSYLHWYQQKPGKAPALLIYSASNLETGVPSRFSGSGSGTDFTLTISSLLPEDFATYYCQQVVWRPFTFGQGTKVEIKRV[human IgG1 Fc with changes left out]
A450 (AU) [1]: 0.865 AU
Standardized EC50, L929 neutralization assay (5-point) (recombinant human TNFα): 2.21 µg/mL

B17: TNFα dAb Fc variant G68D (Fc fusion, name in Kabat numbering)
chain: DIQMTQSPSSLSASVGDRVTITCRASQAIDSYLHWYQQKPGKAPKLLIYSASNLETGVPSRFSGSGSDTDFTLTISSLLPEDFATYYCQQVVWRPFTFGQGTKVEIKRV[human IgG1 Fc with changes left out]
A450 (AU) [1]: 1 AU
Standardized EC50, L929 neutralization assay (5-point) (recombinant human TNFα): 6.36 µg/mL

B18: TNFα dAb Fc variant G41Q (Fc fusion, name in Kabat numbering)
chain: DIQMTQSPSSLSASVGDRVTITCRASQAIDSYLHWYQQKPQKAPKLLIYSASNLETGVPSRFSGSGSGTDFTLTISSLLPEDFATYYCQQVVWRPFTFGQGTKVEIKRV[human IgG1 Fc with changes left out]
A450 (AU) [1]: 1.07 AU
Standardized EC50, L929 neutralization assay (5-point) (recombinant human TNFα): 2.39 µg/mL

B19: TNFα dAb Fc variant G66Q (Fc fusion, name in Kabat numbering)
chain: DIQMTQSPSSLSASVGDRVTITCRASQAIDSYLHWYQQKPGKAPKLLIYSASNLETGVPSRFSGSQSGTDFTLTISSLLPEDFATYYCQQVVWRPFTFGQGTKVEIKRV[human IgG1 Fc with changes left out]
A450 (AU) [1]: 0.972 AU
Standardized EC50, L929 neutralization assay (5-point) (recombinant human TNFα): 2170 µg/mL

B22: TNFα dAb Fc variant G57S (Fc fusion, name in Kabat numbering)
chain: DIQMTQSPSSLSASVGDRVTITCRASQAIDSYLHWYQQKPGKAPKLLIYSASNLETSVPSRFSGSGSGTDFTLTISSLLPEDFATYYCQQVVWRPFTFGQGTKVEIKRV[human IgG1 Fc with changes left out]
A450 (AU) [1]: 1.08 AU
Standardized EC50, L929 neutralization assay (5-point) (recombinant human TNFα): 0.618 µg/mL

B23: TNFα dAb Fc variant G57K (Fc fusion, name in Kabat numbering)
chain: DIQMTQSPSSLSASVGDRVTITCRASQAIDSYLHWYQQKPGKAPKLLIYSASNLETKVPSRFSGSGSGTDFTLTISSLLPEDFATYYCQQVVWRPFTFGQGTKVEIKRV[human IgG1 Fc with changes left out]
A450 (AU) [1]: 1.19 AU
Standardized EC50, L929 neutralization assay (5-point) (recombinant human TNFα): 1.03 µg/mL

B24: TNFα dAb Fc variant G41S (Fc fusion, name in Kabat numbering)
chain: DIQMTQSPSSLSASVGDRVTITCRASQAIDSYLHWYQQKPSKAPKLLIYSASNLETGVPSRFSGSGSGTDFTLTISSLLPEDFATYYCQQVVWRPFTFGQGTKVEIKRV[human IgG1 Fc with changes left out]
A450 (AU) [1]: 1.06 AU
Standardized EC50, L929 neutralization assay (5-point) (recombinant human TNFα): 5.34 µg/mL

The remaining lines, values ahead:

A450 (AU) [1]: 1 AU
Standardized EC50, L929 neutralization assay (5-point) (recombinant human TNFα): 5.7 µg/mL
B3: TNFα dAb Fc variant P40L (Fc fusion, name in Kabat numbering)
chain: DIQMTQSPSSLSASVGDRVTITCRASQAIDSYLHWYQQKLGKAPKLLIYSASNLETGVPSRFSGSGSGTDFTLTISSLLPEDFATYYCQQVVWRPFTFGQGTKVEIKRV[human IgG1 Fc with changes left out]

A450 (AU) [1]: 1.39 AU
Standardized EC50, L929 neutralization assay (5-point) (recombinant human TNFα): 0.378 µg/mL
B6: TNFα dAb Fc variant L79S (Fc fusion, name in Kabat numbering)
chain: DIQMTQSPSSLSASVGDRVTITCRASQAIDSYLHWYQQKPGKAPKLLIYSASNLETGVPSRFSGSGSGTDFTLTISSLSPEDFATYYCQQVVWRPFTFGQGTKVEIKRV[human IgG1 Fc with changes left out]

A450 (AU) [1]: 1.61 AU
Standardized EC50, L929 neutralization assay (5-point) (recombinant human TNFα): 0.766 µg/mL
B13: TNFα dAb Fc variant L79D (Fc fusion, name in Kabat numbering)
chain: DIQMTQSPSSLSASVGDRVTITCRASQAIDSYLHWYQQKPGKAPKLLIYSASNLETGVPSRFSGSGSGTDFTLTISSLDPEDFATYYCQQVVWRPFTFGQGTKVEIKRV[human IgG1 Fc with changes left out]

A450 (AU) [1]: 1.06 AU
Standardized EC50, L929 neutralization assay (5-point) (recombinant human TNFα): 4.42 µg/mL
B14: TNFα dAb Fc variant K45Q (Fc fusion, name in Kabat numbering)
chain: DIQMTQSPSSLSASVGDRVTITCRASQAIDSYLHWYQQKPGKAPQLLIYSASNLETGVPSRFSGSGSGTDFTLTISSLLPEDFATYYCQQVVWRPFTFGQGTKVEIKRV[human IgG1 Fc with changes left out]

A450 (AU) [1]: 1.19 AU
Standardized EC50, L929 neutralization assay (5-point) (recombinant human TNFα): 1.4 µg/mL
B16: TNFα dAb Fc variant K45D (Fc fusion, name in Kabat numbering)
chain: DIQMTQSPSSLSASVGDRVTITCRASQAIDSYLHWYQQKPGKAPDLLIYSASNLETGVPSRFSGSGSGTDFTLTISSLLPEDFATYYCQQVVWRPFTFGQGTKVEIKRV[human IgG1 Fc with changes left out]

A450 (AU) [1]: 1.3 AU
Standardized EC50, L929 neutralization assay (5-point) (recombinant human TNFα): 1.34 µg/mL
B20: TNFα dAb Fc variant L79H (Fc fusion, name in Kabat numbering)
chain: DIQMTQSPSSLSASVGDRVTITCRASQAIDSYLHWYQQKPGKAPKLLIYSASNLETGVPSRFSGSGSGTDFTLTISSLHPEDFATYYCQQVVWRPFTFGQGTKVEIKRV[human IgG1 Fc with changes left out]

A450 (AU) [1]: 0.901 AU
Standardized EC50, L929 neutralization assay (5-point) (recombinant human TNFα): 1.65 µg/mL
B21: TNFα dAb Fc variant P40A (Fc fusion, name in Kabat numbering)
chain: DIQMTQSPSSLSASVGDRVTITCRASQAIDSYLHWYQQKAGKAPKLLIYSASNLETGVPSRFSGSGSGTDFTLTISSLLPEDFATYYCQQVVWRPFTFGQGTKVEIKRV[human IgG1 Fc with changes left out]
